According to paper PMC4336329 (PLoS ONE, 2015):
Hit rate of the full screen: of about 310,000 compounds, about 2,200 (0.71%) showed an effect of 50% or more. The effect is printed as a negative number. Some of the results follow.

What follows are compounds tested against human ether-à-go-go-related gene (hERG) potassium channel (human, UniProt Q12809) (assay: primary screen, population patch clamp on CHO cells stably expressing hERG).
Sequence of human ether-à-go-go-related gene (hERG) potassium channel (Q12809 whole entry, looked up): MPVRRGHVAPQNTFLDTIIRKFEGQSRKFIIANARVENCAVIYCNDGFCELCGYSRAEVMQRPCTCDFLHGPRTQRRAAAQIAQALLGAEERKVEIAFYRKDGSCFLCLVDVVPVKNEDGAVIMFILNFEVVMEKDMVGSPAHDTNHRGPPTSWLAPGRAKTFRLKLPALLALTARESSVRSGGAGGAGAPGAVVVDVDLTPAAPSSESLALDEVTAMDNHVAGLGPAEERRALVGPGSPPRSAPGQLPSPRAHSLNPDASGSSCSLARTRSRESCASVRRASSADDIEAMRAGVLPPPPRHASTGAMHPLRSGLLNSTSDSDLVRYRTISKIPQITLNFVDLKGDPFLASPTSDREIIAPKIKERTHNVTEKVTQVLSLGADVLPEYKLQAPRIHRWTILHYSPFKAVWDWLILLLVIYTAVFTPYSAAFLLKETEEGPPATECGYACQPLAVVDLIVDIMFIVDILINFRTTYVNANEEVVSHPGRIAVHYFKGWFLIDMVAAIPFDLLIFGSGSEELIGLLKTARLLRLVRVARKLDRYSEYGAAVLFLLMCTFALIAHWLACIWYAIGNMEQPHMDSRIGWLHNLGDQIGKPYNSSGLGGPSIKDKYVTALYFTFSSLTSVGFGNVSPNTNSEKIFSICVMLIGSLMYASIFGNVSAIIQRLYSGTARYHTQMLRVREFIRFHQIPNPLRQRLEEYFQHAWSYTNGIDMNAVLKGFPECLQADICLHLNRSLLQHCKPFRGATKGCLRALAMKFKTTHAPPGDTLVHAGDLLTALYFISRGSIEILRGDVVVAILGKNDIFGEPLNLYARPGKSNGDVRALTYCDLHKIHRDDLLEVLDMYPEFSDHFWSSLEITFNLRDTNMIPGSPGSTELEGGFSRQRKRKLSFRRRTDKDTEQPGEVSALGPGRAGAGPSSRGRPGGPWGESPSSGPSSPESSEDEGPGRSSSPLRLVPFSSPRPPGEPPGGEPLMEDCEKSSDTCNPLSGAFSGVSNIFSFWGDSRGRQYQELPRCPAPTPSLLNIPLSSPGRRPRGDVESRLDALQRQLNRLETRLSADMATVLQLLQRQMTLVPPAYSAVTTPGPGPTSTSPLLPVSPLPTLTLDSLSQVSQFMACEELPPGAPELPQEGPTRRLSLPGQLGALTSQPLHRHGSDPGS

Compound	hERG current change (%, negative = inhibition) at 1uM
CNc1ccccc(-c2ccc3cc4c(cc3n2)OCO4)c1=O	4.15%
Cn1cc(C[C@H](NC(=O)OC(C)(C)C)C(=O)N[C@H](CO)Cc2ccccc2)c2ccccc21	18.7%
COc1ccc(C(=O)COc2ncnc3cc(Cl)ccc23)cc1	10.2%
O=C(Nc1cccc(Cl)c1)c1ccncc1	12.8%
CON/C=C(\C=Nc1ccc(C(F)(F)F)cc1)c1ncc(C(F)(F)F)cc1Cl	3.48%
CN(C(=O)COC(=O)CSCc1cccc(Cl)c1)c1c(N)n(Cc2ccccc2)c(=O)[nH]c1=O	3.78%
O=C(NNC(=O)C1CC1c1ccccc1)c1ccccc1[N+](=O)[O-] (centres unmarked)	-1.92%
COc1ccc(NC(=O)c2ccc3c(c2)CCN3S(=O)(=O)c2ccccc2)cc1	10.5%
O=C(CCn1c(=O)c2ccccc2n(Cc2ccccc2)c1=O)NC1CCN(Cc2ccccc2)CC1	-3.57%
Cc1noc(/C=C/N(C)C)c1S(=O)(=O)N1CCCC(C(=O)NCc2ccc(F)cc2)C1 (centres unmarked)	3.95%
Cc1ccc(C(=O)Nc2c(C)cc(-c3ccccc3)oc2=O)cc1	10.9%
Cc1ccc2c(c1)CCCN2C(=O)NC1CCCCC1	11.5%
O=C(O)CC1S/C(=N\N=C2CCCCCCC2)N(c2ccccc2)C1=O (centres unmarked)	17.1%
COc1cc(-c2csc(N3CCOCC3)n2)cc(OC)c1OC	6.29%
CCOCCCNC(=O)CN1C(=O)C(CC)Oc2ccccc21 (centres unmarked)	12.2%
CC(NCC(=O)Nc1cc(Cl)cc(Cl)c1)c1ccccc1.O=C(O)C(=O)O (centres unmarked)	18%
COc1cccc(NC(=O)c2cc(-c3ccccn3)nc3ccccc23)c1	8.93%
CCOc1[nH]n(-c2ccc(Cl)cc2)c(=O)c1C=Nc1ccc(O)cc1	11.2%
COc1ccc(C(=O)COC(=O)CN2C(=O)NC(C)(C)C2=O)cc1OC	2.8%
c1csc(-c2nnc(Cc3cccc4ccccc34)o2)c1	15.6%
Nc1ccn([C@@H]2CS[C@H](CO)O2)c(=O)n1	11.2%
c1ccc(-c2noc(-c3ccncc3)n2)nc1	11%
Nc1ccc(CCc2nc3ccccc3o2)cc1	7.85%

Compound	hERG current change (%, negative = inhibition) at 1uM
Cc1ccc(C2=CCNCC2)cc1.Cl	14.5%
Cn1nc(C(=O)NCCOc2ccccc2)c2ccccc2c1=O	-0.5%
COc1ccc(C2C(C(C)=O)=C(O)C(=O)N2c2ccc(C)cc2)cc1 (centres unmarked)	10.8%
CCOC(=O)CCc1c(C)c2ccc(OCc3ccc([N+](=O)[O-])cc3)cc2oc1=O	2.15%
O/N=C(/c1ccc(Cl)cc1)C1CC1c1ccccc1 (centres unmarked)	12.9%
O=C(CN1CCN(c2ccccc2)CC1)NC(=O)NCc1ccccc1	21.5%
CC(C)(Cl)[N+](=O)[O-]	13%
O=S(=O)(N1CCOCC1)N1CCN(c2ccccc2F)CC1	14.4%
CCOc1cc(NC(=S)NCCCN2CCOCC2)c(OCC)cc1NC(=O)c1cccc(C)c1	7.77%
COc1ccc(C2N(c3cc(Cl)ccc3OC)C(=O)C3CCCN32)cc1OC (centres unmarked)	-1.27%
Cc1cc(C(=O)N/N=C/c2c[nH]c3ccccc23)c(C)o1	-12.5%
COc1ccccc1NS(=O)(=O)c1cccc(C(=O)N/N=C/c2ccc(NC(C)=O)cc2)c1	18%
COc1ccccc1N(CC(=O)N1CCc2ccccc2C1)S(C)(=O)=O	18.7%
Cc1ccc(-c2[nH]ncc2C(=O)c2ccccc2C)c(O)c1	8.59%
Cc1cc(=O)oc2cc(OCC(=O)OCC(=O)Nc3ccccc3Br)ccc12	9.45%
CCc1cccc(CC)c1NC(=O)CSc1nc2ccc(N3C(=O)C4C5C=CC(C5)C4C3=O)cc2s1 (centres unmarked)	-3.72%
CN(C)C(=S)Nn1c(-c2ccccc2)nc2ccccc2c1=O	10.8%
Cc1cnc(C(=O)OCC(=O)Nc2ccc(Br)c(C)c2)cn1	10.4%
Cc1cc(C)cc(NC(=O)CCNS(=O)(=O)c2ccc3c(c2)oc(=O)n3C)c1	9.33%
Cc1ccc(C2CC(c3cccs3)n3nc(N)nc3N2)cc1 (centres unmarked)	-0.924%
Cc1cc(S(=O)(=O)Nc2ccccc2C)ccc1F	1.74%
CCOc1ccc(C/C(O)=C2\C(=O)CC(C)(C)CC2=NCC(=O)O)cc1OCC	13.6%
O=C(Nc1cccc(F)c1)Nc1ccc2c(c1)C(=O)OC2	11.3%

Compound	hERG current change (%, negative = inhibition) at 1uM
O=C(C1CCC(=O)N(C2CC2)C1)N(CCO)Cc1ccccc1 (centres unmarked)	13.2%
Cc1cccc(OCCSc2nncn2C)c1	13.7%
CN(Cc1nc(-c2ccc3c(c2)OCO3)no1)CC1(N2CCOCC2)CCCCC1	11.7%
C[N+]1=C(/C=C/Nc2ccccc2)C(C)(C)c2ccccc21.[O-][Cl+3]([O-])([O-])[O-]	-62.8%
Cc1cc(O)c(NC(=S)NC(=O)c2ccc(-c3ccc(Cl)cc3)o2)cc1C	3.29%
CCc1ccc(NC(=O)CSc2nc3ccccc3c(=O)n2CCCC(=O)N2CCCC2)cc1	-16.9%
CC(=O)N1CCC(C(=O)Nc2ccc3c(c2)CCC3)CC1	-2.44%
Cc1cccc(C)c1NS(=O)(=O)c1ccc2c(c1)C(=O)c1ccccc1C2=O	-13.2%
Cc1ccc(CNC(=O)CS(=O)CC(=O)O)cc1 (centres unmarked)	15.2%
CNS(=O)(=O)c1cc(N)ccc1C	2.22%
CC(C)CCNC(=O)c1c(CSc2ccc(Cl)cc2)noc1C(=O)NCc1ccccc1	13.1%
CN(Cc1ccc(F)cc1)Cc1nc(-c2ccccc2)no1	6.57%
Cc1cc(C)c(OCC(O)CNC(C)(C)C)c(C)c1.Cl (centres unmarked)	9.45%
CCN1C(=O)c2cccc3c(S(=O)(=O)NCc4cccnc4)ccc1c23	5.94%
O=C(CN1CCC(O)(c2ccccc2)CC1)Nc1ccc2c(c1)OCCO2	24.8%
CCC(C)(C)n1nnnc1C(C(C)C)N(CCN1CCOCC1)Cc1cc2cccc(C)c2[nH]c1=O (centres unmarked)	10.8%
O=C(CCn1c(=S)oc2ccccc21)Nc1ccc(F)cc1	6.71%
Cc1ccc(NC(=O)COC(=O)C(NS(=O)(=O)c2ccc(Cl)cc2)C(C)O)cc1C (centres unmarked)	11.9%
COc1ccc(/C=C/C(=O)NCc2ccccn2)cc1OC	13.7%
Cc1cc(C(=O)NCCCN2CCN(C3CCCCC3)CC2)n(-c2ccccc2)n1	15.4%
O=C(CCNS(=O)(=O)c1ccc2c(c1)CCC(=O)N2)NCc1ccc2c(c1)OCO2	4.61%
CC(C)C(C)NC(=O)COn1nnc2ccc(S(=O)(=O)N3CCOCC3)cc21 (centres unmarked)	20.7%
c1ccc(-c2csc(Cc3nnc4n3CCCCC4)n2)cc1	-1.14%

Compound	hERG current change (%, negative = inhibition) at 1uM
CCN(CC(=O)Nc1ccc2c(c1)OCCO2)C(=O)c1ccc(S(=O)(=O)N(C)C)cc1	15.3%
COc1ccc(N(C(=O)c2cccnc2)S(=O)(=O)c2cccc([N+](=O)[O-])c2)cc1	-2.12%
O=C1CCCC2=C1C(c1ccc(Cl)cc1)n1c(s/c(=C\c3ccc4ccncc4c3)c1=O)=N2 (centres unmarked)	6.62%
O=C(O)c1ccc(-n2[nH]c3c(c2=O)CCCC3)cc1	0.711%
CCOC(=O)C1CCN(C(c2cccc(F)c2)c2sc3nc(C)nn3c2O)CC1 (centres unmarked)	8.11%
Cc1cc(NC(=O)CSCC(=O)N(C)Cc2ccc(Cl)c(Cl)c2)no1	12.4%
CCOC(=O)C1=C(COc2ccccc2)NC(=O)NC1c1ccc2ccccc2c1 (centres unmarked)	-7.86%
O=S(=O)(Cc1ccccc1)N1CCc2ccccc2C1	16.6%
Cc1ccc(NC(=O)OCc2cccs2)cc1	15.6%
S=C(Nc1ccc(Br)cc1Cl)N1CCCC1	14%
CN(CC(=O)NCCc1ccccc1)S(=O)(=O)c1cnc[nH]1	14.9%
Cc1ccc([N+](=O)[O-])c(NC2OC(CO)C(O)C2O)c1 (centres unmarked)	18.2%
COC(=O)c1sccc1-c1ccc(C(=O)Nc2cccnc2)o1	12%
N/C(=N\OC(=O)c1ccc(Cl)cc1)c1ccccn1	-0.428%
Nc1ccc(-c2nc3cc(N)ccc3s2)cc1	9.03%
COC(=O)c1c(-c2ccc(F)cc2)csc1NC(=O)C1CCCO1 (centres unmarked)	6.07%
Cc1sc2nc(SCC(=O)N3CC(C)OC(C)C3)n(C)c(=O)c2c1C (centres unmarked)	6.02%
O=C(C1CCC(Cn2c(=S)[nH]c3ccccc3c2=O)CC1)N1CCOCC1 (centres unmarked)	0.898%
N#C/C(=C\c1ccc(N2CCOCC2)o1)c1nc2ccccc2[nH]1	1.65%
O=C(CCc1nnc(CCCCc2ccccc2)o1)NCCN1CCCCC1=O	-2.88%
